# In the supplement of paper PMC8512760:
# Where a name gives a salt, the structure may show the parent alone. This is one part of the list. Most values come without repeats; read them as rough.
# System: HCC-1187
# Experiment: cell viability relative to vehicle (% of vehicle); basal-like triple-negative breast cancer lines; higher = less cytotoxic
# Conditions: 10 µM; 72 h
# 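Further: stably firefly luciferase-GFP labeled cells in 96-well plates, viability read as luciferase photon flux after d-luciferin addition, treated wells normalized to vehicle wells, single-dose high-throughput screen.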
row,Compound,cell viability
1,C[N+]1(C)CCCC(OC(=O)C(O)(c2ccccc2)c2ccccc2)C1.[Br-] (stereo not drawn) [Mepenzolate Bromide],93
2,OC(c1ccccc1)(c1ccccc1)C1CCNCC1 [Azacyclonol],80.3
3,CCC1(c2cccc(O)c2)CCCCN(C)C1.Cl (stereo not drawn) [Meptazinol HCl],91.6
4,O=S(=O)(F)Cc1ccccc1,99
5,Br.CN1C2CC(OC(=O)C(CO)c3ccccc3)CC1C1OC12 (stereo not drawn) [Scopolamine hydrobromide],121
6,CC(C)c1c(CN(C)C(C)Cc2ccccc2)n(C)n(-c2ccccc2)c1=O (stereo not drawn) [Famprofazone],105
7,O=C1CCC2(O)C3Cc4ccc(O)c5c4C2(CCN3CC2CC2)C1O5 (stereo not drawn) [Naltrexone],81.6
8,Cc1cc(O)ccc1Cl [Chlorocresol],82.1
9,CN1[C@@H]2C[C@@H](O)C[C@H]1[C@@H]1O[C@@H]12 [Scopine],123
10,CCC1(C)CC(=O)NC(=O)C1 [Bemegride],92.2
11,Cc1cccc(C(C)c2cnc[nH]2)c1C.Cl (stereo not drawn) [Dexmedetomidine HCl],99
12,CC12CCC3C(CC=C4CC(O)CCC43C)C1CCC2=O (stereo not drawn) [Dehydroepiandrosterone (DHEA)],112
13,CN1C2CCC1CC(OC(=O)C(CO)c1ccccc1)C2 (stereo not drawn) [Hyoscyamine],87
14,"CC(=Cc1csc(C)n1)C1CC2OC2(C)CCCC(C)C(O)C(C)C(=O)C(C)(C)C(O)CC(=O)O1 (stereo not drawn) [Epothilone B (EPO906, Patupilone)]",33.9
15,Cc1cccc(C)c1NC(=O)CN1CCCC1=O [Nefiracetam],99.4
16,CCOC(=O)c1cncn1C(C)c1ccccc1.Cl (stereo not drawn) [Etomidate hydrochloride],87.6
17,Br.COC(=O)C1=CCCN(C)C1 [Arecoline hydrobromide],91.8

row,Compound,cell viability
1,CCCC[N+]1(C)[C@@H]2C[C@@H](OC(=O)[C@H](CO)c3ccccc3)C[C@H]1[C@@H]1O[C@@H]12 (stereo partly drawn) [Scopolamine butylbromide],118
2,C[N+](C)(C)CCCCCCCCCC[N+](C)(C)C.[Br-].[Br-] [Decamethonium Bromide],88.4
3,CN(C)C1C(=O)C(C(N)=O)=C(O)C2(O)C(=O)C3=C(O)c4c(O)cccc4C(C)(O)C3C(O)C12.O.O (stereo not drawn) [Oxytetracycline Dihydrate],78
4,Cl.NCC1(CC(=O)O)CCCCC1 [Gabapentin HCl],92.1
5,CCCCCCCCCCCCCCCC[N+](C)(C)C.[Br-] [Cetrimonium Bromide (CTAB)],22.6
6,Cn1c(COP(=O)(NCCBr)NCCBr)cnc1[N+](=O)[O-],58.9
7,CC(C)OC(=O)[C@H](C)N[P@](=O)(CO[C@H](C)Cn1cnc2c(N)ncnc21)Oc1ccccc1,93.8
8,O=P1(NCCCl)OCCCN1CCCl (stereo not drawn) [Ifosfamide],88.1
9,Cc1c(N)nc(C(CC(N)=O)NCC(N)C(N)=O)nc1C(=O)NC(C(=O)NC(C)C(O)C(C)C(=O)NC(C(=O)NCCc1nc(-c2nc(C(=O)NCCC[S+](C)C)cs2)cs1)C(C)O)C(O[C@@H]1O[C@@H](CO)[C@@H](O)[C@H](O)[C@@H]1O[C@H]1O[C@H](CO)[C@@H](O)[C@H](OC(N)=O)[C@@H]1O)c1cnc[nH]1 (stereo partly drawn) [Bleomycin Sulfate],51.1
10,CCC[C@H](C)[C@@]1(CC)C(=O)N=C([O-])NC1=O.[Na+] [Pentobarbital sodium salt],71.1
11,CN(C)C(=O)C(CCN1CCC(O)(c2ccc(Cl)cc2)CC1)(c1ccccc1)c1ccccc1.Cl [Loperamide HCl],82.5
12,CC(C)N(CCNC(=O)CN1CCCC1=O)C(C)C [Pramiracetam],106
13,CC12CC(=CO)C(=O)CC1CCC1C2CCC2(C)C1CCC2(C)O (stereo not drawn) [Oxymetholone],117
14,CN(C)C1C(=O)C(C(N)=O)=C(O)C2(O)C(=O)C3=C(O)c4c(O)cccc4C(C)(O)C3C(O)C12 (stereo not drawn) [Oxytetracycline (Terramycin)],75.1
15,O=c1cccc2n1C[C@@H]1CNC[C@H]2C1 [Cytisine],77.9
16,C[N+](C)(C)CC(=O)O.[Cl-] [Betaine hydrochloride],105
17,C#CC1(O)C=CC2C3CCC4=CC(=O)CCC4C3CCC21CC (stereo not drawn) [Gestodene],123

# System: MDA-468
# Experiment: as above
# Conditions: 10 µM; 72 h
row,Compound,cell viability
1,C[N+]1(C)CCCC(OC(=O)C(O)(c2ccccc2)c2ccccc2)C1.[Br-] (stereo not drawn) [Mepenzolate Bromide],115
2,OC(c1ccccc1)(c1ccccc1)C1CCNCC1 [Azacyclonol],104
3,CCC1(c2cccc(O)c2)CCCCN(C)C1.Cl (stereo not drawn) [Meptazinol HCl],97.5
4,O=S(=O)(F)Cc1ccccc1,93.3
5,Br.CN1C2CC(OC(=O)C(CO)c3ccccc3)CC1C1OC12 (stereo not drawn) [Scopolamine hydrobromide],94.1
6,CC(C)c1c(CN(C)C(C)Cc2ccccc2)n(C)n(-c2ccccc2)c1=O (stereo not drawn) [Famprofazone],112
7,O=C1CCC2(O)C3Cc4ccc(O)c5c4C2(CCN3CC2CC2)C1O5 (stereo not drawn) [Naltrexone],86.8
8,Cc1cc(O)ccc1Cl [Chlorocresol],94.8
9,CN1[C@@H]2C[C@@H](O)C[C@H]1[C@@H]1O[C@@H]12 [Scopine],124
10,CCC1(C)CC(=O)NC(=O)C1 [Bemegride],98.7
11,Cc1cccc(C(C)c2cnc[nH]2)c1C.Cl (stereo not drawn) [Dexmedetomidine HCl],99.9
12,CC12CCC3C(CC=C4CC(O)CCC43C)C1CCC2=O (stereo not drawn) [Dehydroepiandrosterone (DHEA)],114
13,CN1C2CCC1CC(OC(=O)C(CO)c1ccccc1)C2 (stereo not drawn) [Hyoscyamine],93.6
14,"CC(=Cc1csc(C)n1)C1CC2OC2(C)CCCC(C)C(O)C(C)C(=O)C(C)(C)C(O)CC(=O)O1 (stereo not drawn) [Epothilone B (EPO906, Patupilone)]",87.1
15,Cc1cccc(C)c1NC(=O)CN1CCCC1=O [Nefiracetam],108
16,CCOC(=O)c1cncn1C(C)c1ccccc1.Cl (stereo not drawn) [Etomidate hydrochloride],136
17,Br.COC(=O)C1=CCCN(C)C1 [Arecoline hydrobromide],114

row,Compound,cell viability
1,CCCC[N+]1(C)[C@@H]2C[C@@H](OC(=O)[C@H](CO)c3ccccc3)C[C@H]1[C@@H]1O[C@@H]12 (stereo partly drawn) [Scopolamine butylbromide],89.5
2,C[N+](C)(C)CCCCCCCCCC[N+](C)(C)C.[Br-].[Br-] [Decamethonium Bromide],95
3,CN(C)C1C(=O)C(C(N)=O)=C(O)C2(O)C(=O)C3=C(O)c4c(O)cccc4C(C)(O)C3C(O)C12.O.O (stereo not drawn) [Oxytetracycline Dihydrate],93.3
4,Cl.NCC1(CC(=O)O)CCCCC1 [Gabapentin HCl],88
5,CCCCCCCCCCCCCCCC[N+](C)(C)C.[Br-] [Cetrimonium Bromide (CTAB)],30.7
6,Cn1c(COP(=O)(NCCBr)NCCBr)cnc1[N+](=O)[O-],95.6
7,CC(C)OC(=O)[C@H](C)N[P@](=O)(CO[C@H](C)Cn1cnc2c(N)ncnc21)Oc1ccccc1,121
8,O=P1(NCCCl)OCCCN1CCCl (stereo not drawn) [Ifosfamide],82.2
9,Cc1c(N)nc(C(CC(N)=O)NCC(N)C(N)=O)nc1C(=O)NC(C(=O)NC(C)C(O)C(C)C(=O)NC(C(=O)NCCc1nc(-c2nc(C(=O)NCCC[S+](C)C)cs2)cs1)C(C)O)C(O[C@@H]1O[C@@H](CO)[C@@H](O)[C@H](O)[C@@H]1O[C@H]1O[C@H](CO)[C@@H](O)[C@H](OC(N)=O)[C@@H]1O)c1cnc[nH]1 (stereo partly drawn) [Bleomycin Sulfate],65.1
10,CCC[C@H](C)[C@@]1(CC)C(=O)N=C([O-])NC1=O.[Na+] [Pentobarbital sodium salt],98.8
11,CN(C)C(=O)C(CCN1CCC(O)(c2ccc(Cl)cc2)CC1)(c1ccccc1)c1ccccc1.Cl [Loperamide HCl],88.2
12,CC(C)N(CCNC(=O)CN1CCCC1=O)C(C)C [Pramiracetam],102
13,CC12CC(=CO)C(=O)CC1CCC1C2CCC2(C)C1CCC2(C)O (stereo not drawn) [Oxymetholone],128
14,CN(C)C1C(=O)C(C(N)=O)=C(O)C2(O)C(=O)C3=C(O)c4c(O)cccc4C(C)(O)C3C(O)C12 (stereo not drawn) [Oxytetracycline (Terramycin)],85.1
15,O=c1cccc2n1C[C@@H]1CNC[C@H]2C1 [Cytisine],107
16,C[N+](C)(C)CC(=O)O.[Cl-] [Betaine hydrochloride],113
17,C#CC1(O)C=CC2C3CCC4=CC(=O)CCC4C3CCC21CC (stereo not drawn) [Gestodene],104
